No constants are given. Whether binding was seen depends on the method and setting. In cells and extracts the contact can be indirect. Some entries that bind do so weakly or less than the wild type.
Legend:
Assay in all cases: split reporter; BiFC; YFP^N (aa 1-155) and YFP^C (aa 156-239) fusions (pCAMBIA-SPYNE, pCAMBIA-SPYCE) co-expressed in tobacco (Nicotiana benthamiana) leaf epidermal cells through Agrobacterium GV3101; confocal microscopy of YFP; only the two named fusions
[1] = molecular target: T1, OsRFC1 (rice (Oryza sativa)) (UniProt Q2R2B4)
T1 sequence: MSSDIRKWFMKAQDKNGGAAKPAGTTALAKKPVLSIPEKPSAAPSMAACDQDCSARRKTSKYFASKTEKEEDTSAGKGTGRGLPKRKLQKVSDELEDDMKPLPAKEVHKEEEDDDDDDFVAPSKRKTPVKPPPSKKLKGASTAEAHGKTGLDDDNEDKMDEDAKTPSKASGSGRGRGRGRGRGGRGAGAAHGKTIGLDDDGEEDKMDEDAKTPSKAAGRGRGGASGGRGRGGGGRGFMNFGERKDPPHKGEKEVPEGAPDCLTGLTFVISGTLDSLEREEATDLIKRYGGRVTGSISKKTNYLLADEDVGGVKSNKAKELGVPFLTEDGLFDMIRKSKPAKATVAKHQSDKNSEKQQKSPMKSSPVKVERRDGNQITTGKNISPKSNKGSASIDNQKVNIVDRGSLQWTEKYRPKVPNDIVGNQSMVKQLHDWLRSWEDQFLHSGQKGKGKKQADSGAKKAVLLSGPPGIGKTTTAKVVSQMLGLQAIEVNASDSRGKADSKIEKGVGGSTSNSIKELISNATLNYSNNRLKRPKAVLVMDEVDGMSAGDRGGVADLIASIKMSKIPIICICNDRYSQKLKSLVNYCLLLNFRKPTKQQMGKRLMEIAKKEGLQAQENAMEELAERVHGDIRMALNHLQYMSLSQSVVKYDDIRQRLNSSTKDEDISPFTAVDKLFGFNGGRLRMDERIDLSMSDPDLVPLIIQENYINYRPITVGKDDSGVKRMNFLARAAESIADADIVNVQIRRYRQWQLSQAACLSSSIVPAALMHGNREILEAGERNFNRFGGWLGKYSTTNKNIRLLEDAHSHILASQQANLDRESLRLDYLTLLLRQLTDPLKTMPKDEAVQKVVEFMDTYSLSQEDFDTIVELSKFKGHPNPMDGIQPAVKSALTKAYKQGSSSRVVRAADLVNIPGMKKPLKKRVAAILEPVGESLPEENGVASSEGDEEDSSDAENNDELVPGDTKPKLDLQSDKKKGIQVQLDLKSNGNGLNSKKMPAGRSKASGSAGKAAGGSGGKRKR

The chains behind the UniProt entries cited, without tags or fusion partners.
UniProt Q9FXM3: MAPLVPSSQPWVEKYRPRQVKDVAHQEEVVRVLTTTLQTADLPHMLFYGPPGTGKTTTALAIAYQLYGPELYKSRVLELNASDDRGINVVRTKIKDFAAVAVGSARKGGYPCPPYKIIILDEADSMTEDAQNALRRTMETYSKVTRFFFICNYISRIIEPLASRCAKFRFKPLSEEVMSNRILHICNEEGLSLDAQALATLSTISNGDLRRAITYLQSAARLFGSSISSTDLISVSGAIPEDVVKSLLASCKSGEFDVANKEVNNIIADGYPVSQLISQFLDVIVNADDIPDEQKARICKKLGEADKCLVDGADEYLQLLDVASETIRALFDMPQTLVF
UniProt Q93ZX1: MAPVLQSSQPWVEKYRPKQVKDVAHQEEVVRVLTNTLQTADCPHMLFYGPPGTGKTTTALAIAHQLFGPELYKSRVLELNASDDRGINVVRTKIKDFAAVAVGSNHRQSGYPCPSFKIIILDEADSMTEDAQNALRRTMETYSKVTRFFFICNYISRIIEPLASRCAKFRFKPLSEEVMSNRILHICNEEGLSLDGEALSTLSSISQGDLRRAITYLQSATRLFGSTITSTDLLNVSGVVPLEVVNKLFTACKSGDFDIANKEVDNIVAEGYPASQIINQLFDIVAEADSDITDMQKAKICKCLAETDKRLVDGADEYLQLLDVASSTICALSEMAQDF

[2] = molecular target: OsRFC2 (rice (Oryza sativa)) (UniProt Q9FXM3)
[3] = molecular target: AtRFC4 (Arabidopsis thaliana) (UniProt Q93ZX1)
[4] = molecular target: T2, OsRFC3 (rice (Oryza sativa)) (UniProt Q6YZ54)
T2 sequence: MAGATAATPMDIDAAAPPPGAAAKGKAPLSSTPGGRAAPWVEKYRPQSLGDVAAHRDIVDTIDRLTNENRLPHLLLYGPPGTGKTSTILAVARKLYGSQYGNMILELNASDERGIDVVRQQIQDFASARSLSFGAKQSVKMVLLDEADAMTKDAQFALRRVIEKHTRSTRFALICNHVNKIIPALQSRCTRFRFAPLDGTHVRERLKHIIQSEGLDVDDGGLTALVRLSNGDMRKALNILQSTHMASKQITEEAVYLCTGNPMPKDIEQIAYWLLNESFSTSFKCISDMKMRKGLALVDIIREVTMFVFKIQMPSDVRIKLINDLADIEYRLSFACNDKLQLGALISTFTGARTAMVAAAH

[5] = molecular target: T3, OsRFC4 (rice (Oryza sativa)) (UniProt Q7XRX1)
T3 sequence: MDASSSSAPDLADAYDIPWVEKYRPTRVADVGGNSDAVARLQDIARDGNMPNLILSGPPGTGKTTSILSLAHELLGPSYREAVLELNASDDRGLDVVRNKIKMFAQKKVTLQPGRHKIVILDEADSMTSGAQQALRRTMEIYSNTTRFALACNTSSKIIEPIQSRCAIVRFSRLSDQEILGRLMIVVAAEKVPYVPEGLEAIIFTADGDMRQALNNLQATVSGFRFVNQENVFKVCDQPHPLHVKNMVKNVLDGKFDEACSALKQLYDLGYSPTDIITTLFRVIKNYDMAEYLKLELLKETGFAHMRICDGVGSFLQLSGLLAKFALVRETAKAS

B1: OsRFC5 Δ235–354 (domain or fragment, UniProt Q852K3 1-234)
chain: MLWVDKYRPKTLDKVTVHDQVAQNLKKLVAEQDCPHLLFYGPSGSGKKTLVMALIKQMFGAGADKVKMENKTWKIDTGSRNIEIELAMLSSAHHVEMNPSDAGFQDRYVVQEVIKEMAKNRPIDAKGKRAFKVLVLNEVDKLSREAQHSLRRTMEKYSASCRLILCCNSSSKVTEAVRSRCLNVRVNAPSEDQIVQVLEFIGKKENLQLPFGFAARIAAQSNRNLRRAILFFET
binding [1]: binds
binding [2]: binds

B2: OsRFC5 Δ205–354 (domain or fragment, UniProt Q852K3 1-204)
chain: MLWVDKYRPKTLDKVTVHDQVAQNLKKLVAEQDCPHLLFYGPSGSGKKTLVMALIKQMFGAGADKVKMENKTWKIDTGSRNIEIELAMLSSAHHVEMNPSDAGFQDRYVVQEVIKEMAKNRPIDAKGKRAFKVLVLNEVDKLSREAQHSLRRTMEKYSASCRLILCCNSSSKVTEAVRSRCLNVRVNAPSEDQIVQVLEFIGKK
binding [1]: no binding
binding [2]: binds

B3: OsRFC5 (protein, UniProt Q852K3 1-354)
chain: MLWVDKYRPKTLDKVTVHDQVAQNLKKLVAEQDCPHLLFYGPSGSGKKTLVMALIKQMFGAGADKVKMENKTWKIDTGSRNIEIELAMLSSAHHVEMNPSDAGFQDRYVVQEVIKEMAKNRPIDAKGKRAFKVLVLNEVDKLSREAQHSLRRTMEKYSASCRLILCCNSSSKVTEAVRSRCLNVRVNAPSEDQIVQVLEFIGKKENLQLPFGFAARIAAQSNRNLRRAILFFETCKVQQYPFTSNQVAPPLDWEQYVSEIAADIMKEQSPKRLFAVRQKFYELLVNCIPPESILKKLLAELLKKLDSDLKHEICHWAAHYEHKMRLGSKAIFHLEAFVAKFMSIYKEFLVSTFG
binding [3]: binds
binding [1]: binds
binding [2]: binds

B4: OsRFC4 (protein, UniProt Q7XRX1 1-335)
chain: MDASSSSAPDLADAYDIPWVEKYRPTRVADVGGNSDAVARLQDIARDGNMPNLILSGPPGTGKTTSILSLAHELLGPSYREAVLELNASDDRGLDVVRNKIKMFAQKKVTLQPGRHKIVILDEADSMTSGAQQALRRTMEIYSNTTRFALACNTSSKIIEPIQSRCAIVRFSRLSDQEILGRLMIVVAAEKVPYVPEGLEAIIFTADGDMRQALNNLQATVSGFRFVNQENVFKVCDQPHPLHVKNMVKNVLDGKFDEACSALKQLYDLGYSPTDIITTLFRVIKNYDMAEYLKLELLKETGFAHMRICDGVGSFLQLSGLLAKFALVRETAKAS
binding [4]: binds
binding [3]: binds
binding [1]: binds

B5: AtRFC2 Δ1–224 (domain or fragment, UniProt Q9CAM7 225-333)
chain: VNQENVFKVCDQPHPLHVKNIVRNVLESKFDIACDGLKQLYDLGYSPTDIITTLFRIIKNYDMAEYLKLEFMKETGFAHMRICDGVGSYLQLCGLLAKLSIVRETAKAP
binding [3]: binds

B6: AtRFC5 Δ1–239 (domain or fragment, UniProt Q8VXX4 240-354)
chain: YPFTGNQVISPMDWEEYVAEIATDMMKEQSPKKLFQVRGKVYELLVNCIPPEVILKRLLHELLKKLDSELKLEVCHWAAYYEHRMRLGQKAIFHIEAFVAKFMSIYKNFLISTFG
binding [3]: binds

B7: OsRFC3 Δ1–245 (domain or fragment, UniProt Q6YZ54 246-361)
chain: ASKQITEEAVYLCTGNPMPKDIEQIAYWLLNESFSTSFKCISDMKMRKGLALVDIIREVTMFVFKIQMPSDVRIKLINDLADIEYRLSFACNDKLQLGALISTFTGARTAMVAAAH
binding [5]: binds
binding [1]: binds
binding [2]: binds

B8: OsRFC3 Δ342–361 (domain or fragment, UniProt Q6YZ54 1-341)
chain: MAGATAATPMDIDAAAPPPGAAAKGKAPLSSTPGGRAAPWVEKYRPQSLGDVAAHRDIVDTIDRLTNENRLPHLLLYGPPGTGKTSTILAVARKLYGSQYGNMILELNASDERGIDVVRQQIQDFASARSLSFGAKQSVKMVLLDEADAMTKDAQFALRRVIEKHTRSTRFALICNHVNKIIPALQSRCTRFRFAPLDGTHVRERLKHIIQSEGLDVDDGGLTALVRLSNGDMRKALNILQSTHMASKQITEEAVYLCTGNPMPKDIEQIAYWLLNESFSTSFKCISDMKMRKGLALVDIIREVTMFVFKIQMPSDVRIKLINDLADIEYRLSFACNDKLQ
binding [5]: binds
binding [1]: no binding
binding [2]: binds

B9: OsRFC4 Δ1–222 (domain or fragment, UniProt Q7XRX1 223-335)
chain: GFRFVNQENVFKVCDQPHPLHVKNMVKNVLDGKFDEACSALKQLYDLGYSPTDIITTLFRVIKNYDMAEYLKLELLKETGFAHMRICDGVGSFLQLSGLLAKFALVRETAKAS
binding [4]: binds
binding [1]: binds

B10: OsRFC4 Δ216–335 (domain or fragment, UniProt Q7XRX1 1-215)
chain: MDASSSSAPDLADAYDIPWVEKYRPTRVADVGGNSDAVARLQDIARDGNMPNLILSGPPGTGKTTSILSLAHELLGPSYREAVLELNASDDRGLDVVRNKIKMFAQKKVTLQPGRHKIVILDEADSMTSGAQQALRRTMEIYSNTTRFALACNTSSKIIEPIQSRCAIVRFSRLSDQEILGRLMIVVAAEKVPYVPEGLEAIIFTADGDMRQALN
binding [4]: binds
binding [1]: binds

B11: OsRFC4 Δ136–335 (domain or fragment, UniProt Q7XRX1 1-135)
chain: MDASSSSAPDLADAYDIPWVEKYRPTRVADVGGNSDAVARLQDIARDGNMPNLILSGPPGTGKTTSILSLAHELLGPSYREAVLELNASDDRGLDVVRNKIKMFAQKKVTLQPGRHKIVILDEADSMTSGAQQAL
binding [4]: binds
binding [1]: no binding

MDASSSSAPDLADAYDIPWVEKYRPTRVADVGGNS (domain or fragment, UniProt Q7XRX1 1-35) [OsRFC4 Δ36–335]
binding [4]: binds

B12: OsRFC5Δ1–237 (domain or fragment, UniProt Q852K3 238-354)
chain: QQYPFTSNQVAPPLDWEQYVSEIAADIMKEQSPKRLFAVRQKFYELLVNCIPPESILKKLLAELLKKLDSDLKHEICHWAAHYEHKMRLGSKAIFHLEAFVAKFMSIYKEFLVSTFG
binding [1]: binds
binding [2]: binds

B13: OsRFC5 Δ1–300 (domain or fragment, UniProt Q852K3 301-354)
chain: LLKKLDSDLKHEICHWAAHYEHKMRLGSKAIFHLEAFVAKFMSIYKEFLVSTFG
binding [1]: no binding
binding [2]: no binding

B14: OsRFC5 Δ155–354 (domain or fragment, UniProt Q852K3 1-154)
chain: MLWVDKYRPKTLDKVTVHDQVAQNLKKLVAEQDCPHLLFYGPSGSGKKTLVMALIKQMFGAGADKVKMENKTWKIDTGSRNIEIELAMLSSAHHVEMNPSDAGFQDRYVVQEVIKEMAKNRPIDAKGKRAFKVLVLNEVDKLSREAQHSLRRTM
binding [1]: no binding
binding [2]: no binding
